Values joined by “and” are separate entries in the source; they are usually repeats but may differ in a detail not shown here. Equal values may be shown once. Inconclusive results, whose numbers are uncertain, are shown with a selection of clear calls. A potency beside an inconclusive call is a rough fit, not a confirmed value. Some structures have more than one record in an assay (separate samples or runs), and their calls can disagree. Active and inactive are the calls of the source. Unless noted, calls follow the shape of the dose curve; as a rule, active = well fitted curve in the direction sought with a large enough effect in the repeat runs; inconclusive = weak or mixed curves; inactive = no such curve, though single readings can be large; an effect the other way counts as inactive or inconclusive.
System: not listed separately
Assay: qHTS assay to identify small molecule agonists of the TGF-beta/Smad signaling pathway (AID 1346859; active = well fitted activation curve with a large enough effect in the signal ratio in the repeat runs, not every such curve was filed as active; inconclusive = weak or mixed curves; the % refers to the signal ratio; as to activation: % is scaled to controls: 0 for no effect and ±100 for the full control effect)
Conditions: SBE-bla HEK293T, TGF-beta/Smad beta-lactamase reporter, 5 h; activation: at 76.8 µM (top of the series)
In short: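 After overnight seeding, SBE-bla HEK 293T cells are dosed with compounds in DMSO and kept 5 hr at 37 C, 5% CO2. LiveBLAzer-type FRET substrate is then applied for 2 hr at room temperature.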
Potency is read from the fitted curve at half-maximal effect; tags tell the direction and shape of the fitted curve or compound fluorescence and quenching.

Compound | activation | Potency
Nc1ccc(N=Nc2ccc(N)cc2)cc1 | inactive: -1.15% [at 35.3 µM] | –
O=Cc1ccc(C(=O)O)cc1 | inactive: 4.58% | –
CN(C)[C@@H]1C(=O)C(C(N)=O)=C(O)[C@@]2(O)C(=O)C3=C(O)c4c(O)cccc4C[C@H]3C[C@@H]12 | – | inconclusive: 26.8 µM [fluorescent, single point]
COc1ccc(-n2nc(C(F)F)cc2-c2ccc(S(C)=O)cc2)cc1 (stereo not drawn) | – | inconclusive: 27.5 µM [rising, partial curve]
O=C(c1ccc(F)cc1)C1CCN(CCn2c(=O)[nH]c3ccccc3c2=O)CC1 | – | inconclusive: 19 µM [rising, partial curve]
CC(C)=CCOc1ccc(/C=C/C(=O)c2ccc(OCC=C(C)C)cc2OCC(=O)O)cc1 | – | inconclusive: 26.8 µM [rising, single point]

Target: Thyrotropin-releasing hormone receptor (Homo sapiens) (UniProt P34981)
Chain of UniProt P34981 (P34981 whole entry, looked up): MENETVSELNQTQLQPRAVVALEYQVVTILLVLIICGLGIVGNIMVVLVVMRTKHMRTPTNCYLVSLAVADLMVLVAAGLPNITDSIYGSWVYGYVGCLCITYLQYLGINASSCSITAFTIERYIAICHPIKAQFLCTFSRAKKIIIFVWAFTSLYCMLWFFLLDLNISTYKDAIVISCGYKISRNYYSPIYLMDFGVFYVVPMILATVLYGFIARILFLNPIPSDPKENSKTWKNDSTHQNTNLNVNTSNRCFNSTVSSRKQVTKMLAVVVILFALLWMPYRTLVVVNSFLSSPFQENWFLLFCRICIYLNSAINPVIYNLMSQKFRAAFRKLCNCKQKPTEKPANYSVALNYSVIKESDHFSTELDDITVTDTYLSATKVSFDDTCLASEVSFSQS
Assay: qHTS assay to identify small molecule agonists of the thyrotropin-releasing hormone receptor (TRHR) signaling pathway (AID 1346891; calls by dose curve;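 as to activation: HEK293 cells expressing TRHR with calcium dye readout; % is scaled to controls: 0 for no effect and ±100 for the full control effect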)
Conditions: TRHR-HEK293 calcium fluorescence, agonist mode; series mostly up to 57.6 µM; activation: at the top concentration
In short: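 Compounds were tested as agonists at 15 concentrations, in triplicate, on TRHR-Hek293 cells; calcium-sensitive dye fluorescence was recorded for 3 min following addition.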

Compound | Potency | activation
Nc1c(S(=O)(=O)O)cc(Br)c2c1C(=O)c1ccccc1C2=O | inconclusive: 20 µM [activator, single point] and inconclusive: 34.7 µM [activator, partial curve] | –
O=C(Oc1ccccc1)Oc1ccccc1 | – | inactive: 0.0036%
Clc1nnc(Cl)c2ccccc12 | inconclusive: 43.4 µM [activator, single point] | –
CC(C)(C)c1ccc(OC2CCCCC2O)cc1 (stereo not drawn) | inconclusive: 43.6 µM [activator, partial curve, poor fit] | –

System: not listed separately
Assay: qHTS assay to identify small molecule antagonists of the TGF-beta/Smad signaling pathway (AID 1346924; active = well fitted inhibition curve with a large enough effect in the signal ratio in the repeat runs, not every such curve was filed as active; inconclusive = weak or mixed curves; the % refers to the signal ratio)
Conditions: SBE-bla HEK293T, TGF-beta/Smad reporter, beta-lactamase ratio; activity, negative = inhibition: at 76.8 µM (top of the series) unless noted
In short: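 Read-out was FRET-substrate fluorescence (405 nm excitation; 460 and 530 nm emission) after 2 h at room temperature. Before that, cells carrying a Smad-binding-element beta-lactamase reporter in HEK 293T had been stimulated 5 h at 37 C with TGF-beta1 (0.25 ng/mL addition solution) in the presence of test compound.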

Compound | activity, negative = inhibition | Potency
CCCC(=O)OCOC(=O)C1=C(C)NC(C)=C(C(=O)OC)C1c1cccc(Cl)c1Cl (stereo not drawn) | inconclusive: 1.71% [at 35.3 µM] | –
O=C(/C=C/c1ccc([N+](=O)[O-])cc1)c1ccccc1 | inconclusive: -1.77% | –
c1ccc(SSc2ccccc2)cc1 | inconclusive: 4.67% | –
O=C(/N=N/C(=O)OCc1ccccc1)OCc1ccccc1 | inconclusive: -13.9% | –
CN(C)[C@@H]1C(=O)C(C(N)=O)=C(O)[C@@]2(O)C(=O)C3=C(O)c4c(O)cccc4C[C@H]3C[C@@H]12 | – | inconclusive: 26.8 µM [rising, partial curve]
COc1ccc(-n2nc(C(F)F)cc2-c2ccc(S(C)=O)cc2)cc1 (stereo not drawn) | – | inconclusive: 38.9 µM [rising, partial curve]
CN(C)C(C)(C)CO | inconclusive: -48% | –

System: not listed separately
Assay: Human pregnane X receptor (PXR) small molecule agonists, qHTS cell viability counter screen (AID 1346977); also: nearly all actives have a fitted effect of over 50% in size; as to activity change, negative = cytotoxicity: % is scaled to controls: 0 for no effect and ±100 for the full control effect
Conditions: PXR-Luc HepG2 viability, CellTiter-Fluor, 24 h; series mostly up to 92.4 µM; activity change, negative = cytotoxicity: at the top concentration
In short: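 Viability counter screen: CellTiter-Fluor signal in PXR-Luc HepG2 cells, 24hr compound exposure, 37C, 5% CO2.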

Compound | Potency | activity change, negative = cytotoxicity
Nc1c(S(=O)(=O)O)cc(Br)c2c1C(=O)c1ccccc1C2=O | active: 31.3 µM and active: 27.3 µM | –
O=C1c2ccccc2C(=O)C1c1nc2ccccc2c(Br)c1O | – | inactive: -3.33%
Cn1sccc1=O | inconclusive: 68.6 µM [cytotoxic, partial curve, poor fit] | –

System: not listed separately
Assay: Caspase-3/7 induction in HepG2 cells by small molecules, qHTS assay (AID 1346978); also: nearly all actives have a fitted effect of over 15% in size; as to caspase activation: % is scaled to controls: 0 for no effect and ±100 for the full control effect
Conditions: HepG2 caspase-3/7 activation, Caspase-Glo luminescence, 17 h; series mostly up to 92.4 µM; caspase activation: at the top concentration
In short: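 Caspase-3/7 induction was measured by Caspase-Glo 3/7 luminescence (30 min, room temperature) after a 17 hr compound exposure of wild-type HepG2 cells seeded at 2,000 per well and pre-incubated 5 hr.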

Compound | caspase activation | Potency
O=C1c2ccccc2C(=O)C1c1nc2ccccc2c(Br)c1O | inactive: -1.38% | –
O=C(/C=C/c1ccc([N+](=O)[O-])cc1)c1ccccc1 | – | inconclusive: 68.7 µM [activator, single point]
Cc1cn([C@H]2C[C@H](N=[N+]=[N-])[C@@H](CO)O2)c(=O)[nH]c1=O | – | inconclusive: 70.5 µM [activator, single point]
CC(C)(C)c1ccc(OC2CCCCC2O)cc1 (stereo not drawn) | – | inconclusive: 77 µM [activator, single point]

System: not listed separately
Assay: Caspase-3/7 induction in CHO-K1 cells by small molecules, qHTS cell viability counter screen (AID 1346979); also: nearly all actives have a fitted effect of over 35% in size
Conditions: CellTiter-Fluor fluorescence, 17 h; activity change, negative = cytotoxicity: at 92.4 µM (top of the series)
In short: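 Viability readout by fluorescence (CellTiter-Fluor) on wild-type CHO-K1 cells exposed for 16hr at 37C and 5% CO2 to compounds delivered in DMSO; reagent incubated 1hr before reading.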

Compound | activity change, negative = cytotoxicity | Potency
CS(=O)(=O)c1ccc([C@@H](C[C@H]2CCC(=O)C2)C(=O)Nc2cnccn2)cc1Cl | inactive: -0.627% | –
Nc1c(S(=O)(=O)O)cc(Br)c2c1C(=O)c1ccccc1C2=O | – | inconclusive: 39.5 µM [cytotoxic, single point]
O=C1c2ccccc2C(=O)C1c1nc2ccccc2c(Br)c1O | – | inconclusive: 68.6 µM [cytotoxic, partial curve, poor fit]
CCCCC/C=C\C/C=C\CCCCCCCC(=O)OC | – | active: 61.1 µM
CC1=CC(=O)CC(C)(C)C1 | – | inconclusive: 70.5 µM [cytotoxic, single point]
Brc1cc(-c2ccc(Br)c(Br)c2Br)cc(Br)c1Br | – | inconclusive: 1.2 µM [cytotoxic, single point]
O=C(/C=C/c1ccc([N+](=O)[O-])cc1)c1ccccc1 | – | inconclusive: 77.1 µM [cytotoxic, single point]
NS(=O)(=O)c1cc2c(cc1Cl)NC=NS2(=O)=O | – | inactive
c1ccc(SSc2ccccc2)cc1 | – | inconclusive: 69.1 µM [cytotoxic, single point]
Nc1ccc(N=Nc2ccc(N)cc2)cc1 | – | active: 24.3 µM
CN(C)[C@@H]1C(=O)C(C(N)=O)=C(O)[C@@]2(O)C(=O)C3=C(O)c4c(O)cccc4C[C@H]3C[C@@H]12 | – | inconclusive: 33.5 µM [cytotoxic, single point]
COc1ccc(-n2nc(C(F)F)cc2-c2ccc(S(C)=O)cc2)cc1 (stereo not drawn) | – | inconclusive: 54.5 µM [cytotoxic, partial curve]
CC(C)=CCOc1ccc(/C=C/C(=O)c2ccc(OCC=C(C)C)cc2OCC(=O)O)cc1 | – | inconclusive: 33.5 µM [cytotoxic, single point]
CN(C)C(C)(C)CO | inactive: 11.1% | –

Source: PubChem BioAssay (Tox21)
